Read counts are not given, so values of variants with three or more changes are uncertain.
B1: CPEB3 Ribozyme (parent)
chain: UAACAGGGGGCCACAGCAGAAGCGUUCACGUCGCAGCCCCUGUCAGAUUCUGGUGAAUCUGCGAAUUCUGCUGUAUAUCUC

Variants of: B1
Assay: self-cleavage, relative activity (ratio to wild type); higher = more cleavage; in vitro, sequencing
Method in brief: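 Libraries of CPEB3 self-cleaving ribozyme mutants came from rounds of error-prone PCR and carried barcodes, which DNA sequencing matched to variants. In vitro transcription used T7 RNA polymerase at 37°C for 5 hours, with a further 15 min in DNase I before EDTA stopped the reaction; the ribozymes cleaved during both steps. The RNA was reverse transcribed with template switching and sequenced on Illumina. Relative activity is the cleaved/total read fraction of a variant divided by that of the unmutated ribozyme, averaged over three batches with at least 5 reads.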
A5C U31C A45U U54C A65G gave a self-cleavage of 0.1. In the case of A5C G22A U41C U48C U78C, the self-cleavage is reported as 0.07. With A5G A21G U72A the self-cleavage was 0.16. For A5G A20U U49C, the self-cleavage was 0.1. A5G A13U C27G G55A gave a self-cleavage of 0.37. In the case of A5G A45U U80C, the self-cleavage is reported as 0.34. A5G A35G G53A showed a self-cleavage of 1.22. In the case of C4G U43A G52A G73A, the self-cleavage is reported as 1.27. For A5G A18G C40U U49G A57U G63A, the self-cleavage was 0.11. For C4G G9U A20G U25C C39A U51C U72A, the self-cleavage was 0.05. Work on A5G A15U U25A G30U U51C A64U G73A yielded a self-cleavage of 0.27. Work on C4U A5G A13U yielded a self-cleavage of 1.09. Work on A5C A18U A28C U51A yielded a self-cleavage of 0.11. Variant A5G A45U G63U U72A U80C has a self-cleavage of 0.15. With A5G C11U A15G U58A U80A the self-cleavage was 0.16. Variant A5C U25C A45U has a self-cleavage of 0.41. A5C A13G C38A U43C U72C showed a self-cleavage of 0.47. Variant A5C G24C A56G G63C A64G has a self-cleavage of 0.16. With A5C A13G A20G C38U U43C U72C U78C the self-cleavage was 0.18. C4U A15G U25C U31A U43A U51C showed a self-cleavage of 0.12. For A5C G33A A45G U54C U66C, the self-cleavage was 0.16. For A5G A20G A28G, the self-cleavage was 0.52. Work on A5G A15U A64G yielded a self-cleavage of 0.28. C4U U49A U54C showed a self-cleavage of 0.68. With A5G A13G U69A the self-cleavage was 0.23. For A5G A13U A18U G73U, the self-cleavage was 0.29. In the case of A5G A15G A20U A45U U58C, the self-cleavage is reported as 0.38. Work on A5G A21G A28G U43A yielded a self-cleavage of 0.17. In the case of A5G C11U A21C A56C U60G U67C, the self-cleavage is reported as 0.03. With C4U G10A A47G A56G U78C the self-cleavage was 0.23. Variant A5C G9A A45G has a self-cleavage of 0.11. With A5G A18U U43C the self-cleavage was 0.18. In the case of C4U U26A C34G, the self-cleavage is reported as 0.57. In the case of A5G A13G G73A U80C, the self-cleavage is reported as 0.8. A5G A18U U41A U80A gave a self-cleavage of 0.16. A5C A13G U60C A64G showed a self-cleavage of 0.43. A5C G9U A28U C38U gave a self-cleavage of 0.09. With A5C U49C U54A the self-cleavage was 0.17. In the case of C4U A21U U51G U78C, the self-cleavage is reported as 0.38. Work on A5G A35G U49C A77U yielded a self-cleavage of 0.26. Work on A5G A20G A21G U25A G30A U58A yielded a self-cleavage of 0.07. Work on A5C A28G U60C A64G yielded a self-cleavage of 0.35. Variant A5G A15G A21G A28G U48C U49A A56U has a self-cleavage of 0.3. A5G A15G A18G A45G showed a self-cleavage of 0.1. Work on C4U U31A A56G U80C C81A yielded a self-cleavage of 1.05. With A5G A21G U31C U41C U43G the self-cleavage was 0.09. A5G C11G A28G A57G U58A U67C gave a self-cleavage of 0.07. In the case of A5G A20U A21G, the self-cleavage is reported as 0.43. C4U A18G A20G A21U showed a self-cleavage of 0.15. A5G A47G U54A U60C showed a self-cleavage of 0.34. With A5G A28G U51C the self-cleavage was 0.41. With A5G A15C C37G the self-cleavage was 0.8. With A5G A18G A75G U80C the self-cleavage was 0.16. A5G A45C U60C A65G showed a self-cleavage of 0.27. For A5C C29G A57G U66C U72A, the self-cleavage was 0.1. Work on A5G C11A U25C U66C U76C yielded a self-cleavage of 0.21. A5G A15G A28G gave a self-cleavage of 0.41. For A5G A64G U69G, the self-cleavage was 0.22. A5G A28G U48C U51A U69C U72A U78A gave a self-cleavage of 0.24. In the case of C4G U54A G70C U72C A75U, the self-cleavage is reported as 0.56. In the case of C4U A28U U54A C62U, the self-cleavage is reported as 0.39. A5C C11G A13G U26C C44A A45U G55A gave a self-cleavage of 0.09. Variant A5G A35G U80A has a self-cleavage of 1.32. In the case of A5C G36U A47G U51C U72G, the self-cleavage is reported as 0.09. A5G A13G U26C U72C U80A gave a self-cleavage of 0.59. C4U A13G U51A showed a self-cleavage of 1.03. In the case of A5C G6A G7A U78C, the self-cleavage is reported as 0.3. A5C A28G C62U A64G U78A showed a self-cleavage of 0.14. Work on A5G A13G G22C A35G A45G A47U U72C yielded a self-cleavage of 0.08. Variant C4U A20U U72A has a self-cleavage of 0.29. A5G A45G U69A U80A gave a self-cleavage of 0.37. A5G A15G U41C U80C gave a self-cleavage of 0.55. Variant A5C A47G U51C A64G U72A has a self-cleavage of 0.27. A5G A13U U43C gave a self-cleavage of 0.38. Work on C4U A20G C29U U31C U51A yielded a self-cleavage of 0.35. With A5G C12A A18G U31A G36A U66C U74C the self-cleavage was 0.05. With A5G A15U A28G C34U U78C the self-cleavage was 0.09. A5C U41C U78C showed a self-cleavage of 0.66. Work on A5G A18G U26C U41G yielded a self-cleavage of 0.3. With C4U G7U C29U A45U the self-cleavage was 0.13. With A5C A20G U66C U67C the self-cleavage was 0.79. Variant A5C U31A G36A C44U U72G U80A has a self-cleavage of 0.05. Variant A5G A28G A35U U54C has a self-cleavage of 0.08. Work on A5G A45U U54C U60G yielded a self-cleavage of 0.4. A5C A18C U26C A35G U51A showed a self-cleavage of 0.61. Variant A5G A45G A64G has a self-cleavage of 0.62. Variant A5G A28G U31C has a self-cleavage of 0.49. A5G A28U A35U G36A A47U U60A gave a self-cleavage of 0.27. C4U U60A U74A showed a self-cleavage of 1.17. A5C G10A A15U gave a self-cleavage of 0.1. Work on A5G A15C A35U G61C yielded a self-cleavage of 0.09. Variant C4U U25C C29U A45G has a self-cleavage of 0.28. In the case of A5G A20U G33A U48C, the self-cleavage is reported as 0.32. For A5G A21G U54C A64U U74A, the self-cleavage was 0.11. A5C G10C A21G U31C U43C U51C A65G showed a self-cleavage of 0.07. A5G A20G U43A U49A gave a self-cleavage of 0.48. Variant A5G A13U A28U U72C has a self-cleavage of 0.32. For A5G A21U U41A U54G, the self-cleavage was 0.06. A5G A45G U48C U60C showed a self-cleavage of 0.51. In the case of A5G A20G U31C A64U U67A, the self-cleavage is reported as 0.52. With A5C G19C A20G C38A U54C the self-cleavage was 0.07. Work on A5G A13C U69A U72G yielded a self-cleavage of 0.05. A5G A21G A47G U54A U60C gave a self-cleavage of 0.3. Variant C4U C11U G16A C17U A35G U60C U78G has a self-cleavage of 0.09. Work on A5C A21G U25C U31A A35U U60C U69G yielded a self-cleavage of 0.04. With A5G A21G A45G U60C U69C A77U the self-cleavage was 0.3. With A5C C40U U51A the self-cleavage was 0.56. Variant A5G A28G A35U C40A has a self-cleavage of 0.1. In the case of A5G A47U A57U, the self-cleavage is reported as 0.4. A5G A13U A20G A47G U80C showed a self-cleavage of 0.69. Work on A5G A20C U74C yielded a self-cleavage of 0.11. Variant A5G A13G A18G G33A U41A U80A has a self-cleavage of 0.1. Variant A5G A13G U60A has a self-cleavage of 0.11. In the case of A5C A15G U49G U51C A57G A75G, the self-cleavage is reported as 0.17. A5G A47U A56G U69G gave a self-cleavage of 0.16. For A5C A13G A21G A28U C37A U67C, the self-cleavage was 0.09. A5G A18U A56G U67A U80C showed a self-cleavage of 0.35. Variant A5C C11U A20G C62U has a self-cleavage of 0.33. In the case of A5G A56C U78C, the self-cleavage is reported as 0.26. For A5C A21G A57G, the self-cleavage was 0.6. In the case of A5G A35G G63C, the self-cleavage is reported as 1.15. Work on A5G A20G U48C G73A yielded a self-cleavage of 0.65. A5G A20U C39A U69A U72A gave a self-cleavage of 0.14. Work on A5G A21G A35G A57G U60C A64G U78A yielded a self-cleavage of 0.19. Work on A5G A45U U49C G70C yielded a self-cleavage of 0.12. A5G C11G G70A gave a self-cleavage of 0.1. A5G A21G A47G showed a self-cleavage of 0.41. A5G A15G U26C G42A showed a self-cleavage of 0.45. A5G A13G U31G A35G A77U gave a self-cleavage of 0.08. In the case of A5G A13G A28U G36U U72C, the self-cleavage is reported as 0.24. Variant A5G A18G U54G A56G U72A has a self-cleavage of 0.14. Work on A5C G9U A35U C38U yielded a self-cleavage of 0.06. In the case of A5G A18G A28G, the self-cleavage is reported as 0.3. With A5C A57G A64U C68U U69A U72C the self-cleavage was 0.31. With A5C A28G U48C C50G U67C U72A the self-cleavage was 0.11. A5G A15U C40A G42A U74G A75U gave a self-cleavage of 0.06. A5G A21G A45G A56U U60C C71G U76A showed a self-cleavage of 0.03. In the case of A5C U26C A28G, the self-cleavage is reported as 0.3. In the case of A5G A20G U54A, the self-cleavage is reported as 0.79. In the case of A5G A35U U41A, the self-cleavage is reported as 0.16. C4G U43A G73A U76A showed a self-cleavage of 1.23. A5C C17U G30A A35G A47G U67A C71U gave a self-cleavage of 0.05. Variant A5C G9A A35U G55U has a self-cleavage of 0.08. A5C A20G U31C A65G showed a self-cleavage of 0.16. A5G A20G U31C A64U U69C showed a self-cleavage of 0.21. C4U A5G U41C C44U showed a self-cleavage of 0.6. A5G A18G U26A G33A U43A U69C gave a self-cleavage of 0.11. C4U A13U A56U U80A showed a self-cleavage of 1.16. A5G A18U C29A C38A U51A A57U showed a self-cleavage of 0.4. With A5G A20G G24U the self-cleavage was 0.1. In the case of A5G A18G A28G G46U, the self-cleavage is reported as 0.07. Work on C4U U25G C32G U69A U78C yielded a self-cleavage of 0.09. In the case of A5G A13U U41C, the self-cleavage is reported as 0.8. C4U U43C A77G showed a self-cleavage of 0.63. Variant A5G A56U A65C U72C has a self-cleavage of 0.07. For A5G A15G A18C C39A U48C A56G A64G, the self-cleavage was 0.04. For A5G A18G A21G C29G A35G U41C, the self-cleavage was 0.56. In the case of A5G A15C C34U A64U A65G U69A U72C, the self-cleavage is reported as 0.08. C4U G8A A18U A35G gave a self-cleavage of 0.13. A5G A18U A35U U41A U80C showed a self-cleavage of 0.39. A5C C29G A45G gave a self-cleavage of 0.39. Work on A5G A35G U54A A57U yielded a self-cleavage of 1.08. In the case of A5G A18U C34U U41C C62G, the self-cleavage is reported as 0.39. A5C U41A U48A U74A gave a self-cleavage of 0.07. A5G A18G A21G U67G A77G gave a self-cleavage of 0.71. In the case of A5G A28G U41C C79U, the self-cleavage is reported as 0.49. Work on A5C G9A A15G A65G U76C yielded a self-cleavage of 0.34.
